The RNAGym collection of RNA variant scans (doi:10.1073/pnas.2313332121)
Variants at the floor of the assay are shown more often than the library holds them.

B1: TPR 5TU (parent)
chain: GGAUCUUCUCGAUCUAACAAAAAAGACAAAUCUGCCACAAAGCUUGAGAGCAUCUUCGGAUGCAGAGGCGGCAGCCUUCGGUGGCGCGAUAGCGCCAACGUUCUCAACUAUGACACGCAAAACGCGUGCUCCGUUGAAUGGAGUUUAUCAUG

Variants of: B1
Assay: polymerase ribozyme fitness, log enrichment relative to wild type (log ratio); higher = more active; in vitro selection for triplet polymerase activity
In short: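 For each subunit of a heterodimeric triplet polymerase ribozyme, a mutant library was built by PCR and transcribed, then taken through a single in vitro selection round in triplicate. Selection involved annealing to a biotinylated primer, the partner subunit and triplets, incubation frozen at −7 °C, gel excision of extended constructs, capture on streptavidin beads and RT-PCR. Genotypes were retained after Illumina sequencing of inputs and outputs only with ≥10 input reads and ≥1 read in each output. Fitness is defined as the logarithm of a genotype's enrichment relative to wild-type enrichment, using inverse-variance-weighted averages across replicates, with the logarithm taken to base 2.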

| Variant | polymerase ribozyme fitness (log ratio) |
| --- | --- |
| GGAUCUUCUCGAUCUAACAAAAAGGACAAAUCUGCCACAAAGCUUGAGAGCAUCUUUGCAUGCAGAGGCGGCAGCCUUCGGUGGCGCGAUAGCGCAAACGUUCUCAACUAUGACACACAAAACGCGUGCUCCGUUGAAUGGAGUUUAUCAUG [A24G C57U G59C C96A G117A] | ≤ -4.2 |
| GGAUCUUCUCGAUCUAACAAAAAGGACAAAUCUGCCACAAACCUUGAGAGCAUCUUCGUAUGCAGAGGCGGCAGCCUUCGGUGGCGCGAUAGCGCAAAAGUUCUCAACUAUGACACGCAAAACGCGUGCUCUGUUGAAUGGAGUUUAUCAUG [A24G G42C G59U C96A C99A C132U] | ≤ -4.2 |
| GGAUCUUCUCGAUCUAACAAAAAGGACAAAUCUGCCACAAAGCUUGAGACCUUCUUCGGAUGCAGUGGCGGCAGGCUUCGGUGGCGCGAUAGCGCCAACGUUCUCAACUAUGACACGCAAAACGCGUGCUCCGGUGAAUGGAGUUUAUCAUG [A24G G50C A52U A66U C75G U134G] | ≤ -4.2 |
| GGAUCUUCUCGAUCUAACAAAAAGGACAAAUAGGCCACAAAGCUUGAGAGCAUCUUCGGAUGCAAAGGCGGCAGCCUUCAGUGGCGCGAUAGCGCCAUCGUUCUCAACUAUGACACGCAAAACGCCUGCUCCGUUGAAUGGAGUGUCUCAUG [A24G C32A U33G G65A G80A A98U G126C U145G A147C] | ≤ -4.2 |
| GGAUCUUCUCGAUCUAACAAAAAGGACAAAUCUGCCACAAAGCUUGAGAGCAUCUUCGGAUGCAGAGGAGGCAGCCUUCGGUGGCGCGAUUGCGCCAACGUUCUCAACUAUGACACGCAAAACGCGUGCUCCGUUGAUUGGAUUUUAUCAUG [A24G C69A A91U A138U G143U] | ≤ -4.2 |
| GGAUCUUCUCGAUCUAACAAAAAGGACAAAUCUGCCAGAAACCUUGAGAGCAUCUUCGGAUGCAGGGGCGGCAGCCUUCGGUGGCGCGAUAGAGCCAACGUUCUCAACUAUGACACGCAAAACGCGUGCUCCGUUGACUGGAGUUUAUCAUG [A24G C38G G42C A66G C93A A138C] | ≤ -4.2 |
| GGAUCUUCUCGAUCUAACAAAAAGGACAAAUCUGCCACAAAGCUUGAGAACAUCUUCGGAUGCAGAGGCGGCAGCCUUCUGUGGCGCAAUAGCGCCAACGUUCUCAACUAUGACACGCAAAACGCGUGCUCCGUUGAAUGGAGUUUAUCAUG [A24G G50A G80U G88A] | ≤ -4.2 |
| GGAUCUUCUCGAUCUAACAAAAAGCACAAAUCUGCCACAAAGCUUGAGUGCAUCUUCGGAUGCAGAGGCGGCAGCCUUCGGUGACGCGAUAGCGCCAACGUGCUCAACUAUGACACGCAAAACGCGUGCUCCGUUGAAUGGAGUUUAUCAUG [A24G G25C A49U G84A U102G] | ≤ -4.2 |
| GGAUCUUCUCGAUCUAACAAAAAGUACAUAUAUGCCACAAAGCUUGAGAGCAUUUUCGGAUGCAGAGGCGGCAGCCUUCGGUGGCGCGAUAGCCCCAACGUUCUCAACUAUGACACGCAAAACGCGUGCUGCGUUGAAUGGAGUUUAUCAUG [A24G G25U A29U C32A C54U G94C C131G] | ≤ -4.2 |
| GGAUCUUCUCGAUCUAACAAAAAGGACAAAUCUGCCACAAAGCUUGAGAGCAUCUUCGGAUGCAGAGGCGGCAGCCUUCGGUGGCGCGAUAGCCCCAACGUUCUCAACUAUGACACGCAAAACGCGUGCUCCGUUGAAUGGAGUUUAUCAUG [A24G G94C] | -3.21 |
| GGAUCUUCUCGAUCUAACAAAAAGGACAAAUCUGCCACAAAUCUUGAGAGCAUCUUCGGAUGCAGAGGCGGAAGCCUUCGGUGGCGCGAUUACGCCAACGUGCUCAACUAUGACACGCAAAACGCGUGCUCCGUUUAAUGGAGUUUAUCAUG [A24G G42U C72A A91U G92A U102G G136U] | ≤ -4.2 |
| GGAUCUUCUCGAUCUAACAAAAAGGACAAAUCUGCCACAAAGCUUGAGAGCAUCUUCGGAUGCAGAGGCCGCAGCCUUCGGUGGCGCGAUAGCGCCAACGUUCUCAACUAUGACACGCAAAACGCGUGCUCCGUUGAAUGGAGUUUAUCAUG [A24G G70C] | ≤ -4.2 |
| GGAUCUUCUCGAUCUAACAAAAAGGACAAAUCUGCCACAAAGCUUGAGAGCAUCUUCGGAUGCAGAGGCGGCAGCCUUCGGUGGCGAGAUAGCGCCAACGUUCUCAACUAUGACACGCAAAACGCGUGCUCCGUUGAAUGGAGUUUAUCAUG [A24G C87A] | ≤ -4.2 |
| GGAUCUUCUCGAUCUAACAAAAAGGACAAAUCUGCCACAAAGCUUGAGAGCAUCUUCGGAUGCAGAGGCGGCAGCCUUCGGUGGCGGGAUAGCGCCAACGUUCUCAACUAUGACACGCAAAACGCGUGCUCCGUUGAAUGGAGUUUAUCAUG [A24G C87G] | ≤ -4.2 |
| GGAUCUUCUCGAUCUAACAAAAAGGACAAAUCUGUCACAAAGCUUGAUAGCUUCUUCGGAUGCAGAGGCGGCAGCCUUCGGUGGCGCGAUAGCGCCAACGUUCUCAACUAUGACACGCAAAACGAGUGCUCCGUUGAAUGGAGUUUAUCAUG [A24G C35U G48U A52U C125A] | ≤ -4.2 |
| GGAUCUUCUCGAUCUAACAAAAAGGACAAAUCUGCCACAAAGCUUGAGAGCAUCUUCGGAUUCAGAGGCGGCAGCCUUCGGUGGCGCGAUAGCACCAACGUUCUCAACUAUGACAGGCAUAACGCGAGCUCCGUCGAAUGGAGUUUAUCAUG [A24G G62U G94A C116G A120U U127A U135C] | ≤ -4.2 |
| GGAUCUUCUCGAUCUAACAAAAAGGACAAAUCUGCCACAAAGCUUGAGAGCAUCUUCGGAUGCAGAGGCGGCAGCCUUCGGUGGCGCGAUAGGGCCAACGUUCUCAACUAUGACACGCAAAACGCGUGCUCCGUUGAAUGGAGUUUAUCAUG [A24G C93G] | ≤ -4.2 |
| GGAUCUUCUCGAUCUAACAAAAAGGACAAAUCUGCCACAAAGCUUGAGAGCAUCUUCGGAUGCAGAGGCGGCAGCCUUCGGUGGCGCGAUAGUGCCAACGUUCUCAACUAUGACACGCAAAACGCGUGCUCCGUUGAAUGGAGUUUAUCAUG [A24G C93U] | -3.49 |
| GGAUCUUCUCGAUCUAACAAAAAGGAGAAAUCUGCCACAAAGCUUGAGAGCAUCUUCGGAUGCAGAGGCGGCCGCCUACGGUGGCGCGAUAGCGCCAAUGUUCUCAACUAUGACAUGCAAAACGCGUGGUCCGUUGAAUGGAGUUUAUCAUG [A24G C27G A73C U78A C99U C116U C129G] | ≤ -4.2 |
